{"source": "patent US5883107A", "about": "“Arginine mimic derivatives as enzyme inhibitors” (Corvas International, Inc., priority 1995, dated 1999)", "data": [{"molecule": "CCCC(CCC)C(=O)N[C@@H](CC(=O)OC)C(=O)N1CCC[C@H]1C(=O)N[C@H](C=O)CC1CCCN(C(=N)N)C1", "note": "(single isomer, unassigned) [Isomer 11B, alpha-N-(propylpentanoyl)-aspartyl(beta-methyl ester)-prolyl-3-[3-piperidyl-(N-guanidino)]-L-alaninal]", "values": [{"measurement": "prolongation of APTT", "setting": "citrated human plasma", "value": "prolonged the APTT in a dose dependent manner"}, {"measurement": "prolongation of APTT", "setting": "citrated rat plasma", "value": "prolonged the APTT in a dose dependent manner"}]}]}
